The record followed here is article PMC5509671, “Quantitative interactome of a membrane Bcl-2 network identifies a hierarchy of complexes for apoptosis regulation” (Nature Communications, 2017).

Data set [1] concerns the molecule itself. As to the kind of experiment: fluorescence correlation spectroscopy in solution (diffusion coefficient D); D of the labelled protein alone, on dilution (Bcl-xLG, below 20 nM D grew) or with a second Bcl-2 protein; 150 mM NaCl, 20 mM Tris, pH 7.5; dimer to monomers.
Data set [2] deals with the molecule itself. Briefly: fluorescence cross-correlation spectroscopy (FCCS) in solution; both partners free in solution, one with a green and one with a red dye; 150 mM NaCl, 20 mM Tris, pH 7.5; incubated at least 30 min (1 h for the cBidG titration); protein concentrations up to 200 nM; CC above 2.8% indicates interaction.

B1: full length human Bcl-xL S4C, C151A, labelled (natural protein)
chain: not shown
modifications: labelled with ATTO 488-maleimide (Bcl-xLG), ATTO 655-maleimide (Bcl-xLR) or Alexa 405 (Bcl-xL405)
notes: Bcl-xL, human, full length, with S4C, C151A; The label would sit on the single cysteine C4 (surmised); The three dye forms are written as one molecule; also called Bcl-xLG; Bcl-xLR; source: E. coli BL21/RILP, purified (IMPACT intein system, anion exchange), labelled
The term Kd denotes the constant that tells how readily two partners part at equilibrium. A higher Kd goes with weaker binding. One may read the stoichiometry N as the number of molecules, sites or subunits per partner or assembly. On to B1, for which the Kd is ~10 nM in data set [1] and ~600 nM in data set [2]. Moreover, the “stoichiometry N” value in data set [1] was found to be 2.
